Measured values as given in PubChem BioAssay AID602332 (National Center for Advancing Translational Sciences (NCATS), 2012).
“And” between values parts separate entries of the source, which are not always exact repeats. Identical values can stand only once. Screen size: about 420,000 compounds; about 75 (0.02%) were called active. Calls follow the shape of the dose curve; as a rule, active = well fitted activation curve with a large enough effect; inconclusive = small, poorly fitted or top-dose-only effect; inactive = no such curve, though single readings can be large or run the other way. The entries are a selection whose mix differs from that of the whole data set.

Experiment: qHTS for Inducers of the Endoplasmic Reticulum Stress Response (ERSR) in Human Glioma: qHTS; also: nearly all actives have a fitted effect of over 35% in size; as to activation: % of control where 0% means no effect
Conditions: U87-MG GRP78 promoter luciferase reporter, 16 h; activation: active compounds read high
Procedure, shortened: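 Stably transfected U87-MG glioma cells carrying a GRP78-based luciferase sensor; 16 h compound incubation. Luminescence end-point read 10 min after Bright-Glo addition at room temperature.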
Potency is read from the fitted curve at half-maximal effect.

activation, inactive:
CCOC(=O)CNC(=O)CSc1ncnc2c1cnn2-c1ccccc1 -18.1%, CN1CCN2c3ccccc3Cc3ccccc3[C@@H]2C1 1.04% and -7.15%, N#CC(=Cc1ccc(O)c(O)c1)C(=O)NCc1ccccc1 8.24%, CN(C)CCC(=O)c1ccc2c(c1)OCO2 -15.4%, O=C(Nc1ccc(F)cc1)c1nn(-c2ccccc2)c(=O)cc1Cl -16.6%, COc1ccc(C(=O)Nc2nc3ccccc3[nH]2)cc1 -14%, Cc1cc(C)c2c(N)c(C(=O)Nc3nccs3)sc2n1 -14%, CCC(=O)Nc1ccc(C(=O)Cn2ncc(Cl)c(Cl)c2=O)cc1 -15.8%, O=C(O)c1cccc(C(=O)Nc2cccc(NC(=O)C3CCCO3)c2)c1 (configuration not stated) -13.8%, CCCCC/C=C\CC(O)/C=C/c1cccc(CC(O)CCCCO)n1 (configuration not stated) -1.91%, CCOc1ccc(-c2cc(CCCC(=O)Nc3cc(OC)ccc3OC)no2)cc1 -13.1%, CCOC(=O)CNC(=O)CSc1nnc(-c2cccc(C)c2)n1-c1ccc(OC)cc1 -16.7%, CC(C)(C)OC(=O)C[C@@H]1C/C=C\C[C@@H](CC(=O)N[C@H](CO)Cc2ccccc2)C(=O)NC[C@H](c2ccccc2)OC1=O -2.47%, C=C1C(=O)[C@]23[C@H](O)[C@H]1CC[C@H]2[C@@]12COC3(O)[C@H](O)[C@@H]1C(C)(C)CC[C@@H]2O -12.1%, Oc1cc2c(c(Cl)c1O)CCNC[C@H]2c1ccccc1 -0.537%, CCCCN1CCC[C@H]1CNC(=O)c1cc(C#N)c2ccccc2c1OC -8.18%, CC(C)(C)C(=O)Nc1ccc(NC(=O)c2ccco2)nc1 -18.9%, COc1ccc(C(=O)Nn2c(SCC(=O)NCc3ccco3)nc3ccccc3c2=O)cc1 -16.7%, CCn1nnnc1SCC(=O)c1ccc(C)cc1C -10.4%, CCCCS(=O)(=O)/C=C\C=C/S(=O)(=O)CCCC -15.2%, O=C(CCCN1C(=O)/C(=C/c2ccccc2Cl)SC1=S)NNC(=O)c1cccnc1 -14.8%, CC(C)c1nnc(NC(=O)c2nc(S(=O)(=O)Cc3ccc(F)cc3)ncc2Cl)s1 -19.3%, COc1ccc(C(=O)Nc2nnc(SCC(=O)NC3CC3)s2)cc1 -14.4%, O=C(/C=C/c1ccc(O)c(O)c1)O[C@@H]1C[C@@](O)(C(=O)O)C[C@H](O)[C@@H]1O -1.19%, CC(=O)N[C@@H](CC(=O)O)C(=O)O -1.99% and 2.2%, C=C1C(=O)O[C@@H]2[C@H]3O[C@]3(C)CC/C=C(\C)CC[C@@H]12 -11.9% and -7.86%, Cc1ccccc1N=CC1=C(O)c2ccccc2C1=O -15.6%, COC(=O)CSc1nc(-c2ccc(F)cc2)cc(C(F)(F)F)n1 -2.62%, CC(=O)OCC1OC(C#Cc2ccccc2)C=CC1OC(C)=O (configuration not stated) 2.43%, O=C(CCCN1C(=O)/C(=C/c2ccccc2Cl)SC1=S)NNC(=O)c1ccc(Cl)cc1Cl -18.2%, CC[C@H](C(=O)[C@H](C)[C@H](O)[C@H](C)CCc1ccc(C)c(O)c1C(=O)O)[C@H]1O[C@](CC)([C@@H]2CC[C@@](O)(CC)[C@H](C)O2)C[C@H]1C 3.75%, O=c1c2ccccc2nc(/C=C/c2cc(Br)ccc2O)n1CCCO -14.4%, C[C@@H]1CN([C@@H](C)CO)S(=O)(=O)c2ccc(Br)cc2O[C@H]1CN(C)C(=O)c1ccccc1 -2.82%, CC(C)(C)OC(=O)C[C@@H]1C/C=C\C[C@@H](CC(=O)N[C@@H](CO)Cc2ccccc2)C(=O)NC[C@@H](c2ccccc2)OC1=O -2.63%, CCOc1ccc(OCc2ccc(C(=O)OCc3ccccn3)o2)cc1 -14.3%, CCNC(=O)NC(=O)COC(=O)c1ccccc1SCC(=O)NC(=O)NCC -11.6%, CCC(C)(C)c1ccc(Oc2ccc(NC(=O)COC(=O)C3=COCCO3)cc2)cc1 -15.8%, COC(=O)NC(=C(Cl)Cl)S(=O)(=O)c1ccccc1 -15.4%, CCc1nn2cc(-c3ccccc3)nc2s1 -14.9%, Cc1cc(NCCCCCCCNc2cc(C)nc3cc([N+](=O)[O-])ccc23)c2ccc([N+](=O)[O-])cc2n1 -14.2%, CCCCCCCCCCCCCCCCCC(=O)OC(CC(=O)O)C[N+](C)(C)C (configuration not stated) -13.5%, O=C(N/C=N/OCc1ccc(Cl)cc1Cl)NOCc1ncc(C(F)(F)F)cc1Cl -18.6%, Cc1ccc(C(C)C)c2c1C(c1ccc3c(c1)OCO3)CC(=O)O2 (configuration not stated) -0.85%, COc1ccc(Br)cc1C(C[N+](=O)[O-])c1c(N)n(C)c(=O)n(C)c1=O (configuration not stated) -15.9%, O=C1C=CC2(C=C1)O[C@H](Cc1ccccc1)[C@@H](Cc1ccccc1)O2 -14.1%, CC(=O)N(C)c1ccc(N=Nc2ccc3ncccc3c2)cc1 -12.1%, COc1ccc(-c2cc(=O)c3ccc(O)cc3o2)cc1 -5.89% and -4.47%, C[C@@H](NC(=O)/C(C#N)=C/c1ccc(O)c(O)c1)c1ccccc1 2.12% [middle of 4 runs], CCCn1cnc2cc(NC(=O)c3ccco3)ccc21 -10.8%, C=CC[C@@H](CC(=O)OC(C)(C)C)C(=O)OC[C@H]1CCCN1C(=O)[C@@H](CC=C)CC(=O)NCCO -3.67%, O=[N+]([O-])c1cc(-c2ccc(/C=N/c3nc4ccccn4c3-c3ccco3)o2)ccc1Cl -16.7%, O=C(Nc1ccc(Cl)cc1)Nc1ccccc1C(=O)O -16.1%, O=C(COc1ccc(Cl)cc1Cl)Nc1ccccn1 -14.4%, CC(C)(C)c1ccc([C@@H](O)CCCN2CCC(C(O)(c3ccccc3)c3ccccc3)CC2)cc1 -4.35%, CC(=O)c1c(C)[nH]c(C(=O)OCCOc2ccccc2)c1C -14.6%, Cc1ccc(NC(=O)CCOc2ccccc2)cc1 -0.619%, Cc1ccc(C(=O)N/N=C/c2ccc([N+](=O)[O-])s2)cc1 -18.2%, CC(=O)NC(CC(=O)O)C(=O)O (configuration not stated) 1.67%, Cn1cnc([N+](=O)[O-])c1S(=O)(=O)c1ccc(Cl)cc1 -16.3%, Cc1ccc(CS(=O)(=O)c2ncc(Cl)c(C(=O)Nc3nnc(C(C)C)s3)n2)cc1 -10.7% and -19.1%, Cn1cc(C=C2C(=O)Nc3cccnc32)c2ccccc21 -1.05%, O=C(O)CCCCC1CCSS1 (configuration not stated) -2.14% and -3.87% and -1.96%, CCCCC/C=C\C[C@H](O)/C=C/c1cccc(C[C@H](O)CCCCO)n1 4.18%, O=C(NCc1ccccc1Cl)C1CCCN(S(=O)(=O)c2cccc3nsnc23)C1 (configuration not stated) -3.26%, O=S(=O)(c1ccc(Cl)cc1)c1snnc1-c1ccccc1 -17.1%, O=c1cc(-c2ccccc2Cl)oc2c(NS(=O)(=O)c3cc(Cl)cc(Cl)c3O)ccc(O)c12 -2.36%, CC[C@@H](C)[C@H]1O[C@]2(CC[C@@H]1C)C[C@@H]1C[C@H](C/C=C(/C)[C@H](O[C@@H]3C[C@H](OC)[C@H](O[C@@H]4C[C@H](OC)[C@@H](O)[C@H](C)O4)[C@H](C)O3)[C@@H](C)/C=C\C=C3CO[C@@H]4[C@H](O)C(C)=C[C@@H](C(=O)O1)[C@]34O)O2 (tested in a mixture with another compound) -6.52%, COC(=O)c1[nH]c2ccc(Br)cc2c1NC(=O)CN1CCN(C2CCCCC2)CC1 -17.5%, COc1cccc(N(C(=O)c2ccco2)C(C(=O)NC2CCCC2)c2ccc(N(C)C)cc2)c1 (configuration not stated) -17.8%, CCN(CC)CCNC(=O)COc1ccc(OC)cc1 -2.25% and -4.13% and -3.87%, COCCCn1c(-c2ccccc2Cl)n[nH]c1=S -18.6%, CCOc1ccc(N2C(=O)CC(N)C2=O)cc1 (configuration not stated) -16.7%, CCN(CC)c1ccc2cc(NC(=O)CCC(=O)O)c(=O)oc2c1 -13.6%, COC(=O)c1ccccc1CCC(C)=O -18.2%, CC(=O)N(Cc1ccc(F)cc1)C1=C(NCCc2ccccc2)C(=O)c2ccccc2C1=O -19.3%, COc1cc(/C=C/C(=O)CC(=O)/C=C/c2ccc(O)c(OC)c2)ccc1O -10% [middle of 5 runs]

Potency, active:
COC(=O)C(C)Oc1cc(OC(C)C(=O)OC)c2c(C)c(Cl)c(=O)oc2c1 (configuration not stated) 39.8 µM, CCOC(=O)C1CCN(C(=O)Cn2ncc3c4ccccc4n(Cc4ccc(F)cc4)c3c2=O)CC1 39.8 µM, O=c1ccc2ccc(O)c(O)c2o1 41.4 µM, O=C(CCc1ccc(O)c(O)c1)N/N=C/c1ccc2c(c1)OCO2 22.4 µM, CC(C)(C)C(=O)NC(=S)NNC(=O)C(c1ccccc1)c1ccccc1 22.4 µM, O=C(O)c1cc(O)ccc1N=Nc1ccccc1 28.2 µM
